Assay results: paper PMC4277425
These are yes or no findings as the source states them, for the method shown. For some of these results: In cells and extracts the contact can be indirect. Some entries that bind do so weakly or less than the wild type. For some of these results: Where a sequence is shown, tags or fusion partners need not be part of it.

Chains of the proteins cited; added tags and fusions are not shown.
UniProt Q96QD5: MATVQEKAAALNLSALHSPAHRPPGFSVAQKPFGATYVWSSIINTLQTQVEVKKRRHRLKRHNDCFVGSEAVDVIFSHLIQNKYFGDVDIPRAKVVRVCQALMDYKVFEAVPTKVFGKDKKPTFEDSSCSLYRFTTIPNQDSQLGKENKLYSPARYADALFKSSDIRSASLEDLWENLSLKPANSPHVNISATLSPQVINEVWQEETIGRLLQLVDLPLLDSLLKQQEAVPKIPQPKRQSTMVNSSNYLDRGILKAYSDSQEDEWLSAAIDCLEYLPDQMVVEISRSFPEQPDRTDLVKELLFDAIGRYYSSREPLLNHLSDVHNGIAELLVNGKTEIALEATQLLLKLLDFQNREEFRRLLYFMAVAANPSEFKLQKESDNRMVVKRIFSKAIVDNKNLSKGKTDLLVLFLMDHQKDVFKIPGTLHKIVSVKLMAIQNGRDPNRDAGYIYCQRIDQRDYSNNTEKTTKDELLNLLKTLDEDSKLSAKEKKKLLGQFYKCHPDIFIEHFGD

T1: CARMA3 (UniProt Q9BWT7)
T1 sequence: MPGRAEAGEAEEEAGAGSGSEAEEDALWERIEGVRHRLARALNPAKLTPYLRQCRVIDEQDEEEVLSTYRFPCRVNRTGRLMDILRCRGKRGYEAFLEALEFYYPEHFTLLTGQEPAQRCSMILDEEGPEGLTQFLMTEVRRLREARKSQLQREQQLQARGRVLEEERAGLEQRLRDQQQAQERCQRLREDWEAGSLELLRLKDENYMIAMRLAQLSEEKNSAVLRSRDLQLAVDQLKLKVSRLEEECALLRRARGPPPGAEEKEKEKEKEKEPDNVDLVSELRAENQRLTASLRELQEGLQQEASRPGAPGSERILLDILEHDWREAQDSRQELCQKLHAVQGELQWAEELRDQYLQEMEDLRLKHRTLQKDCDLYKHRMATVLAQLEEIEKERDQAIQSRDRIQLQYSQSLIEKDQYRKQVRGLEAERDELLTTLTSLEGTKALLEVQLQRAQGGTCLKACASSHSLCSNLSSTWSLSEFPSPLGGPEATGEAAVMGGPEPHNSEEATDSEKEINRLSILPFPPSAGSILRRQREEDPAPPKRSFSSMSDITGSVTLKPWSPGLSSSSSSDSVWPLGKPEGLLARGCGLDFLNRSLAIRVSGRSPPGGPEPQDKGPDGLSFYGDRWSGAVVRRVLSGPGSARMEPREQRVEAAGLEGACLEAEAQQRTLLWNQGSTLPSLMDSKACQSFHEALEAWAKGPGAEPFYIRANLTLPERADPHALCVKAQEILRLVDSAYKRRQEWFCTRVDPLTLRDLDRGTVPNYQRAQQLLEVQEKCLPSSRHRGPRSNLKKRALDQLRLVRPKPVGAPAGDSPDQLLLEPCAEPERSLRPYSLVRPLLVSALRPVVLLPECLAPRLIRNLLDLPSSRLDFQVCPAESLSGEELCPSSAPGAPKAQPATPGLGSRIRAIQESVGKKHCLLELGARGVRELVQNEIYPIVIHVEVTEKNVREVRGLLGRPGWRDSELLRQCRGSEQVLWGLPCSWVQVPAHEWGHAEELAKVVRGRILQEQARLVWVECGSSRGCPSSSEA


Legend:
[1] = target: CARMA2short fused to the DNA-binding domain of GAL4 (UniProt Q9BXL6); assay: two-hybrid; library screen, Matchmaker system, yeast AH109; GAL4DBD-CARMA2sh as bait against a human cDNA library in pACT2 (GAL4TAD); 2x10^6 clones; selective growth, beta-galactosidase reporter
[2] = target: CARMA2short fused to the DNA-binding domain of GAL4 (UniProt Q9BXL6); assay: two-hybrid; direct test in yeast AH109: DEPDC7 fused to GAL4-TAD with the indicated cDNAs fused to GAL4-DBD; growth on selective media, five to ten independent transformants
[3] = target: FLAG-tagged DEPDC7 (human) (UniProt Q96QD5); assay: co-IP; HEK-293 cotransfected with FLAG-DEPDC7 and HA-tagged constructs; lysates (150 mM NaCl, 20 mM Hepes pH 7.4, 1% Triton X-100, 10% glycerol) immunoprecipitated with anti-FLAG mAb, blot with anti-HA
CARMA3 = target: T1, CARMA3; assay: co-IP; HEK-293 transfected with FLAG-tagged constructs; lysates immunoprecipitated with anti-CARMA3 antiserum, immunoblot
[4] = target: endogenous DEPDC7 (human (endogenous in HEK-293)) (UniProt Q96QD5); assay: co-IP; HEK-293 transfected with FLAG-tagged constructs; lysates immunoprecipitated with anti-DEPDC7 antiserum (endogenous DEPDC7), immunoblot
[5] = target: endogenous DEPDC7 (human (endogenous in HEK-293)) (UniProt Q96QD5); assay: co-IP; endogenous proteins, HEK-293 lysates immunoprecipitated with the indicated antibodies, immunoblot; anti-myc antisera as control IgG

| binding [3] | Molecule | further results |
| --- | --- | --- |
|  | DEPDC7 fused to the GAL4 transcription activation domain (from UniProt Q96QD5 1-511) | binding [1]: binds; binding [2]: binds |
| binds | HA-tagged CARMA2sh (from UniProt Q9BXL6-2 1-740) |  |
|  | endogenous DEPDC7 (from UniProt Q96QD5 1-511) | binding (CARMA3): binds |
| binds | HA-tagged CARMA2cardless (from UniProt Q9BXL6-3 1-434) |  |
| no binding | HA-tagged CARMA2 PDZ domain (550-690) (from UniProt Q9BXL6 550-690) (domain or fragment) |  |
|  | FLAG-tagged CARMA2sh (from UniProt Q9BXL6-2 1-740) | binding [4]: binds |
| no binding | HA-tagged CARMA2 CARD domain (1-123) (from UniProt Q9BXL6 1-123) (domain or fragment) |  |
|  | endogenous Net1 (protein, UniProt Q7Z628 1-596) MEPELAAQKQPRPRRRSRRASGLSTEGATGPSADTSGSELDGRCSLRRGSSFTFLTPGPNWDFTLKRKRREKDDDVVSLSSLDLKEPSNKRVRPLARVTSLANLISPVRNGAVRRFGQTIQSFTLRGDHRSPASAQKFSSRSTVPTPAKRRSSALWSEMLDITMKESLTTREIRRQEAIYEMSRGEQDLIEDLKLARKAYHDPMLKLSIMSEEELTHIFGDLDSYIPLHEDLLTRIGEATKPDGTVEQIGHILVSWLPRLNAYRGYCSNQLAAKALLDQKKQDPRVQDFLQRCLESPFSRKLDLWSFLDIPRSRLVKYPLLLKEILKHTPKEHPDVQLLEDAILIIQGVLSDINLKKGESECQYYIDKLEYLDEKQRDPRIEASKVLLCHGELRSKSGHKLYIFLFQDILVLTRPVTRNERHSYQVYRQPIPVQELVLEDLQDGDVRMGGSFRGAFSNSEKAKNIFRIRFHDPSPAQSHTLQANDVFHKQQWFNCIRAAIAPFQSAGSPPELQGLPELHEECEGNHPSARKLTAQRRASTVSSVTQVEVDENAYRCGSGMQMAEDSKSLKTHQTQPGIRRARDKALSGGKRKETLV | binding [5]: binds |
| binds | HA-tagged CARMA2 region 123-550 (coiled coil and linker region) (domain or fragment, UniProt Q9BXL6 123-550) KLTECLAGAIGSLQEELNQEKGQKEVLLRRCQQLQEHLGLAETRAEGLHQLEADHSRMKREVSAHFHEVLRLKDEMLSLSLHYSNALQEKELAASRCRSLQEELYLLKQELQRANMVSSCELELQEQSLRTASDQESGDEELNRLKEENEKLRSLTFSLAEKDILEQSLDEARGSRQELVERIHSLRERAVAAERQREQYWEEKEQTLLQFQKSKMACQLYREKVNALQAQVCELQKERDQAYSARDSAQREISQSLVEKDSLRRQVFELTDQVCELRTQLRQLQAEPPGVLKQEARTREPCPREKQRLVRMHAICPRDDSDCSLVSSTESQLLSDLSATSSRELVDSFRSSSPAPPSQQSLYKRVAEDFGEEPWSFSSCLEIPEGDPGALPGAKAGDPHLDYELLDTADLPQLESSLQPVSPGRLDV |  |
